# The supplement of paper PMC8728848
# Some of the results follow.
# Tests used:
# Assay in all cases: glycan array binding signal (z-score within array); higher = stronger binding
# Conditions in all cases: glycan notation: IUPAC condensed, linker removed
# GlcNAc(b1-3)Gal(b1-4)Glc = molecular target: GlcNAc(b1-3)Gal(b1-4)Glc
# In short: (§1)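 Glycan array data came from 3228 arrays in the Consortium for Functional Glycomics database, and only arrays with an available protein sequence were kept. Glycan names were put into IUPAC-condensed notation, and columns mapping to the same glycan were averaged. The binding signal is a within-array Z-score, averaged across arrays of one protein sequence run at different concentrations or buffers and across linkers. A negative Z-score can be read as non-binding.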
# [1] = molecular target: GlcNAc(b1-3)Gal(b1-4)GlcNAc
# In short: as §1
# [2] = molecular target: GlcNAc(b1-3)Gal(b1-4)GlcNAc(b1-2)Man(a1-3)[GlcNAc(b1-3)Gal(b1-4)GlcNAc(b1-2)Man(a1-6)]Man(b1-4)GlcNAc(b1-4)GlcNAc
# In short: as §1
# [3] = molecular target: GlcNAc(b1-3)Gal(b1-4)GlcNAc(b1-2)Man(a1-3)[GlcNAc(b1-3)Gal(b1-4)GlcNAc(b1-2)Man(a1-6)]Man(b1-4)GlcNAc(b1-4)[Fuc(a1-6)]GlcNAc
# In short: as §1
# [4] = molecular target: GlcNAc(b1-3)Gal(b1-4)GlcNAc(b1-2)[GlcNAc(b1-3)Gal(b1-4)GlcNAc(b1-6)]Man(a1-6)[GlcNAc(b1-3)Gal(b1-4)GlcNAc(b1-2)Man(a1-3)]Man(b1-4)GlcNAc(b1-4)GlcNAc
# In short: as §1
# [5] = molecular target: GlcNAc(b1-3)Gal(b1-4)GlcNAc(b1-3)Gal(b1-4)GlcNAc
# In short: as §1
# [6] = molecular target: GlcNAc(b1-3)Gal(b1-4)GlcNAc(b1-3)Gal(b1-4)GlcNAc(b1-2)Man(a1-3)[GlcNAc(b1-3)Gal(b1-4)GlcNAc(b1-3)Gal(b1-4)GlcNAc(b1-2)Man(a1-6)]Man(b1-4)GlcNAc(b1-4)GlcNAc
# In short: as §1
# [7] = molecular target: GlcNAc(b1-3)Gal(b1-4)GlcNAc(b1-3)Gal(b1-4)GlcNAc(b1-2)Man(a1-3)[GlcNAc(b1-3)Gal(b1-4)GlcNAc(b1-3)Gal(b1-4)GlcNAc(b1-2)Man(a1-6)]Man(b1-4)GlcNAc(b1-4)[Fuc(a1-6)]GlcNAc
# In short: as §1
# [8] = molecular target: GlcNAc(b1-3)Gal(b1-4)GlcNAc(b1-3)Gal(b1-4)GlcNAc(b1-2)[GlcNAc(b1-3)Gal(b1-4)GlcNAc(b1-3)Gal(b1-4)GlcNAc(b1-6)]Man(a1-6)[GlcNAc(b1-3)Gal(b1-4)GlcNAc(b1-3)Gal(b1-4)GlcNAc(b1-2)Man(a1-3)]Man(b1-4)GlcNAc(b1-4)[Fuc(a1-6)]GlcNAc
# In short: as §1
# [9] = molecular target: GlcNAc(b1-3)Gal(b1-4)GlcNAc(b1-3)Gal(b1-4)GlcNAc(b1-3)Gal(b1-4)GlcNAc(b1-2)Man(a1-3)[GlcNAc(b1-3)Gal(b1-4)GlcNAc(b1-3)Gal(b1-4)GlcNAc(b1-3)Gal(b1-4)GlcNAc(b1-2)Man(a1-6)]Man(b1-4)GlcNAc(b1-4)GlcNAc
# In short: as §1
# [10] = molecular target: GlcNAc(b1-3)Gal(b1-4)GlcNAc(b1-3)Gal(b1-4)GlcNAc(b1-3)Gal(b1-4)GlcNAc(b1-2)Man(a1-3)[GlcNAc(b1-3)Gal(b1-4)GlcNAc(b1-3)Gal(b1-4)GlcNAc(b1-3)Gal(b1-4)GlcNAc(b1-2)Man(a1-6)]Man(b1-4)GlcNAc(b1-4)[Fuc(a1-6)]GlcNAc
# In short: as §1
# [11] = molecular target: GlcNAc(b1-3)Gal(b1-4)GlcNAc(b1-3)Gal(b1-4)GlcNAc(b1-3)Gal(b1-4)GlcNAc(b1-2)[GlcNAc(b1-3)Gal(b1-4)GlcNAc(b1-3)Gal(b1-4)GlcNAc(b1-3)Gal(b1-4)GlcNAc(b1-6)]Man(a1-6)[GlcNAc(b1-3)Gal(b1-4)GlcNAc(b1-3)Gal(b1-4)GlcNAc(b1-3)Gal(b1-4)GlcNAc(b1-2)Man(a1-3)]Man(b1-4)GlcNAc(b1-4)[Fuc(a1-6)]GlcNAc
# In short: as §1
# [12] = molecular target: GlcNAc(b1-3)Gal(b1-4)GlcNAc(b1-3)Gal(b1-4)GlcNAc(b1-3)Gal(b1-4)GlcNAc(b1-3)Gal(b1-4)GlcNAc(b1-2)Man(a1-3)[GlcNAc(b1-3)Gal(b1-4)GlcNAc(b1-3)Gal(b1-4)GlcNAc(b1-3)Gal(b1-4)GlcNAc(b1-3)Gal(b1-4)GlcNAc(b1-2)Man(a1-6)]Man(b1-4)GlcNAc(b1-4)GlcNAc
# In short: as §1
# [13] = molecular target: GlcNAc(b1-3)Gal(b1-4)GlcNAc(b1-3)Gal(b1-4)GlcNAc(b1-3)Gal(b1-4)GlcNAc(b1-3)Gal(b1-4)GlcNAc(b1-2)Man(a1-3)[GlcNAc(b1-3)Gal(b1-4)GlcNAc(b1-3)Gal(b1-4)GlcNAc(b1-3)Gal(b1-4)GlcNAc(b1-3)Gal(b1-4)GlcNAc(b1-2)Man(a1-6)]Man(b1-4)GlcNAc(b1-4)[Fuc(a1-6)]GlcNAc
# In short: as §1
# [14] = molecular target: GlcNAc(b1-3)Gal(b1-4)GlcNAc(b1-3)Gal(b1-4)GlcNAc(b1-3)Gal(b1-4)GlcNAc(b1-3)Gal(b1-4)GlcNAc(b1-2)[GlcNAc(b1-3)Gal(b1-4)GlcNAc(b1-3)Gal(b1-4)GlcNAc(b1-3)Gal(b1-4)GlcNAc(b1-3)Gal(b1-4)GlcNAc(b1-6)]Man(a1-6)[GlcNAc(b1-3)Gal(b1-4)GlcNAc(b1-3)Gal(b1-4)GlcNAc(b1-3)Gal(b1-4)GlcNAc(b1-3)Gal(b1-4)GlcNAc(b1-2)Man(a1-3)]Man(b1-4)GlcNAc(b1-4)[Fuc(a1-6)]GlcNAc
# In short: as §1
# [15] = molecular target: GlcNAc(b1-3)Gal(b1-4)GlcNAc(b1-3)Gal(b1-4)GlcNAc(b1-3)GalNAc
# In short: as §1
# [16] = molecular target: GlcNAc(b1-3)Gal(b1-4)GlcNAc(b1-3)GalNAc
# In short: as §1
# [17] = molecular target: GlcNAc(b1-3)Gal(b1-4)GlcNAc(b1-3)[GlcNAc(b1-3)Gal(b1-4)GlcNAc(b1-3)]GalNAc
# In short: as §1
# [18] = molecular target: GlcNAc(b1-3)Gal(b1-4)GlcNAc(b1-6)[Gal(b1-3)]GalNAc
# In short: as §1
# [19] = molecular target: GlcNAc(b1-3)Gal(b1-4)GlcNAc(b1-6)[GlcNAc(b1-3)Gal(b1-3)]GalNAc
# In short: as §1
# [20] = molecular target: GlcNAc(b1-3)Gal(b1-4)GlcNAc(b1-6)[GlcNAc(b1-3)]Gal(b1-4)GlcNAc
# In short: as §1
# GlcNAc(b1-3)GalNAc = molecular target: GlcNAc(b1-3)GalNAc
# In short: as §1
# GlcNAc(b1-3)Man = molecular target: GlcNAc(b1-3)Man
# In short: as §1
# [21] = molecular target: GlcNAc(b1-3)[GlcNAc(b1-4)][GlcNAc(b1-6)]GlcNAc
# In short: as §1
# [22] = molecular target: GlcNAc(b1-3)[GlcNAc(b1-6)]Gal(b1-4)GlcNAc
# In short: as §1
# [23] = molecular target: GlcNAc(b1-3)[GlcNAc(b1-6)]GalNAc
# In short: as §1
# [24] = molecular target: GlcNAc(b1-4)Gal(b1-4)GlcNAc
# In short: as §1
# GlcNAc(b1-4)GlcNAc = molecular target: GlcNAc(b1-4)GlcNAc
# In short: as §1
# [25] = molecular target: GlcNAc(b1-4)GlcNAc(b1-4)GlcNAc
# In short: as §1
# [26] = molecular target: GlcNAc(b1-4)GlcNAc(b1-4)GlcNAc(b1-4)GlcNAc(b1-4)GlcNAc
# In short: as §1
# [27] = molecular target: GlcNAc(b1-4)GlcNAc(b1-4)GlcNAc(b1-4)GlcNAc(b1-4)GlcNAc(b1-4)GlcNAc
# In short: as §1
# [28] = molecular target: GlcNAc(b1-4)[GlcNAc(b1-6)]GalNAc
# In short: as §1
# [29] = molecular target: GlcNAc(b1-6)Gal(b1-4)GlcNAc
# In short: as §1
# GlcNAc(b1-6)GalNAc = molecular target: GlcNAc(b1-6)GalNAc
# In short: as §1
# [30] = molecular target: GlcNAc6S(b1-3)Gal(b1-4)GlcNAc
# In short: as §1
# Kdn(a2-3)Gal(b1-3)GalNAc = molecular target: Kdn(a2-3)Gal(b1-3)GalNAc
# In short: as §1
# Kdn(a2-3)Gal(b1-3)GlcNAc = molecular target: Kdn(a2-3)Gal(b1-3)GlcNAc
# In short: as §1
# Kdn(a2-3)Gal(b1-4)Glc = molecular target: Kdn(a2-3)Gal(b1-4)Glc
# In short: as §1
# Kdn(a2-3)Gal(b1-4)GlcNAc = molecular target: Kdn(a2-3)Gal(b1-4)GlcNAc
# In short: as §1
# [31] = molecular target: Kdn(a2-3)Gal(b1-4)[Fuc(a1-3)]GlcNAc
# In short: as §1
# Kdn(a2-6)Gal(b1-4)GlcNAc = molecular target: Kdn(a2-6)Gal(b1-4)GlcNAc
# In short: as §1
# [32] = molecular target: Man(a1-2)Man(a1-2)Man(a1-3)Man
# In short: as §1
# [33] = molecular target: Man(a1-2)Man(a1-2)Man(a1-6)[Man(a1-3)]Man
# In short: as §1
# Man(a1-2)Man(a1-3)Man = molecular target: Man(a1-2)Man(a1-3)Man
# In short: as §1
# [34] = molecular target: Man(a1-2)Man(a1-3)[Man(a1-2)Man(a1-6)]Man
# In short: as §1
binder,measurement,setting,value
PfulAvr4 2 (Pseudocercospora fuligena) (protein) HHHHHHDYKDDDDKAKPIKPFACPPKDFTTTKCQGPVDCLYANPLSCLGYIQCVCDDDACSTATPYAKSCPTGLAWVEKLKRCDGIKKSACPKKMYEGS,glycan array binding signal (z-score),GlcNAc(b1-3)Gal(b1-4)Glc,-0.301
same,glycan array binding signal (z-score),[1],-0.271
same,glycan array binding signal (z-score),[2],-0.103
same,glycan array binding signal (z-score),[3],-0.121
same,glycan array binding signal (z-score),[4],-0.381
same,glycan array binding signal (z-score),[5],-0.335
same,glycan array binding signal (z-score),[6],0.828
same,glycan array binding signal (z-score),[7],0.006
same,glycan array binding signal (z-score),[8],-0.249
same,glycan array binding signal (z-score),[9],-0.295
same,glycan array binding signal (z-score),[10],-0.152
same,glycan array binding signal (z-score),[11],-0.115
same,glycan array binding signal (z-score),[12],-0.305
same,glycan array binding signal (z-score),[13],-0.097
same,glycan array binding signal (z-score),[14],-0.231
same,glycan array binding signal (z-score),[15],-0.318
same,glycan array binding signal (z-score),[16],0.032
same,glycan array binding signal (z-score),[17],-0.144
same,glycan array binding signal (z-score),[18],-0.245
same,glycan array binding signal (z-score),[19],-0.133
same,glycan array binding signal (z-score),[20],-0.335
same,glycan array binding signal (z-score),GlcNAc(b1-3)GalNAc,-0.312
same,glycan array binding signal (z-score),GlcNAc(b1-3)Man,4.99
same,glycan array binding signal (z-score),[21],-0.521
same,glycan array binding signal (z-score),[22],-0.336
same,glycan array binding signal (z-score),[23],-0.162
same,glycan array binding signal (z-score),[24],-0.339
same,glycan array binding signal (z-score),GlcNAc(b1-4)GlcNAc,0.234
same,glycan array binding signal (z-score),[25],-0.072
same,glycan array binding signal (z-score),[26],-0.125
same,glycan array binding signal (z-score),[27],-0.154
same,glycan array binding signal (z-score),[28],-0.374
same,glycan array binding signal (z-score),[29],-0.263
same,glycan array binding signal (z-score),GlcNAc(b1-6)GalNAc,-0.131
same,glycan array binding signal (z-score),[30],-0.273
same,glycan array binding signal (z-score),Kdn(a2-3)Gal(b1-3)GalNAc,-0.146
same,glycan array binding signal (z-score),Kdn(a2-3)Gal(b1-3)GlcNAc,-0.297
same,glycan array binding signal (z-score),Kdn(a2-3)Gal(b1-4)Glc,0.201
same,glycan array binding signal (z-score),Kdn(a2-3)Gal(b1-4)GlcNAc,-0.272
same,glycan array binding signal (z-score),[31],-0.095
same,glycan array binding signal (z-score),Kdn(a2-6)Gal(b1-4)GlcNAc,-0.206
same,glycan array binding signal (z-score),[32],-0.282
same,glycan array binding signal (z-score),[33],-0.136
same,glycan array binding signal (z-score),Man(a1-2)Man(a1-3)Man,-0.282
same,glycan array binding signal (z-score),[34],-0.375
